# Source: PMC4336329 (PLoS ONE, 2015)
# About 14,000 (4.5%) of roughly 310,000 compounds showed an effect of 50% or more. The effect is printed as a negative number. Some of the results follow.
# Biological target: human ether-à-go-go-related gene (hERG) potassium channel (human, UniProt Q12809)
# Test: primary screen, population patch clamp on CHO cells stably expressing hERG
# 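Also: peak tail current of the secondary pulse compared with the same well before compound.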
# Sequence of human ether-à-go-go-related gene (hERG) potassium channel (Q12809 whole entry, looked up): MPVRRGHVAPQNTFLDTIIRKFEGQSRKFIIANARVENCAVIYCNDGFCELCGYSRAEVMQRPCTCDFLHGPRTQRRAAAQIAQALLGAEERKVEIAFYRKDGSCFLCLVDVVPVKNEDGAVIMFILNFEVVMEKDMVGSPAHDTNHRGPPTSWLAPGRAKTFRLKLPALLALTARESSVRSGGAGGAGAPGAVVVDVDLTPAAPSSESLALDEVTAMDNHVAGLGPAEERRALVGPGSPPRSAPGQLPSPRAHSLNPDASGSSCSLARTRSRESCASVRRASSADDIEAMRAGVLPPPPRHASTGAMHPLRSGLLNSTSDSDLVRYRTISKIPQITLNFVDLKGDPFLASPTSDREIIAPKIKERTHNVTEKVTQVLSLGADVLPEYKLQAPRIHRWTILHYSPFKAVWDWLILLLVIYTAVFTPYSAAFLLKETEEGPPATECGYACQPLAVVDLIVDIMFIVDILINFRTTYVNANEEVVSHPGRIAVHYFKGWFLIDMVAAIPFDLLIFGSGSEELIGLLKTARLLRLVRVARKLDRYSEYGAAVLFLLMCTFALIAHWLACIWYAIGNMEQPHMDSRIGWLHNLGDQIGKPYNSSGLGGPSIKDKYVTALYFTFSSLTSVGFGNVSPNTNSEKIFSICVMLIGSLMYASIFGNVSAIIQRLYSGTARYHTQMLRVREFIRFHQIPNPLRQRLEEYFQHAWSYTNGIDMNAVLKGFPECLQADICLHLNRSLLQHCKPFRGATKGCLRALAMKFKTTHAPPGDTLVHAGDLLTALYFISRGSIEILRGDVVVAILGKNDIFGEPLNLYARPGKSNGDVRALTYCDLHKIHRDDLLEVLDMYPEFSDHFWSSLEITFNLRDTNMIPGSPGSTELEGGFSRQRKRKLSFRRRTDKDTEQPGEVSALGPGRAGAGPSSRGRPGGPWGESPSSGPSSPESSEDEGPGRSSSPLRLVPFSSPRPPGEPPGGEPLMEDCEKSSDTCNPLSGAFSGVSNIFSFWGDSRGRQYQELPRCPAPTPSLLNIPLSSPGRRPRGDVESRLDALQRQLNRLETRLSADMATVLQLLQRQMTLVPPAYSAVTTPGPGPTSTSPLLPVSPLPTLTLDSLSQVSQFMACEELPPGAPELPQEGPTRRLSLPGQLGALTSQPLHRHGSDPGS
row,SMILES,"hERG current change (%, negative = inhibition) at 10uM"
1,CCC1CCCCN1CCCNC(=O)Cn1ncc2c(C)n(Cc3ccccc3Cl)c(C)c2c1=O (stereo not shown),-14.6%
2,CC(C)(C)NC(=O)CSC(=Nc1ccccc1F)NC#N,-0.709%
3,CCn1c(=O)cc(OCC(=O)NCCc2cccc(C)c2)c2ccccc21,-16.2%
4,CCc1cc2c(s1)N(CC(=O)OC)C(=O)CN=C2c1ccccc1OC,10.7%
5,Cc1cccc(NC(=S)Nc2cccc3ccccc23)c1,15.9%
6,CC1=CS(=O)(=O)CC1SC(=S)N(C)C1CCS(=O)(=O)C1 (stereo not shown),21.3%
7,CC(C)(C)c1ccc(C(=O)CSc2nc3ccccc3c(=O)[nH]2)cc1,-4.73%
8,CCCCOC(=O)CNc1n[nH]c(=S)[nH]c1=O,9.69%
9,Cc1ccc(S(=O)(=O)NCC(=O)N2CCN(c3ccccc3F)CC2)cc1,-27.3%
10,CCSc1nnc(NC(=O)c2c(C)noc2C)s1,6.43%
11,CSc1nc2ccccc2n1Cc1cccc(F)c1,-14.4%
12,CCN1C(=O)c2ccccc2Sc2ccc(C(=O)NCCCN3CCOCC3)cc21,-17.8%
13,CSc1ccc(NC(N)=S)cc1,17.5%
14,CC(=O)OC1CCC2(/C=N/O)C(=CCC3C4CCC(=O)C4(C)CCC32)C1 (stereo not shown),-7.92%
15,CCCc1nnc(SCC(=O)Nc2ccc(OCC)cc2)n1N,-3.79%
16,COC(=O)c1cn(C(=O)c2cccc3ccccc23)c2ccccc12,17.2%
17,Cc1ccc(CNC(=O)CCS(=O)(=O)c2cc3c(cc2Cl)NC(=O)CO3)o1,-24.5%
18,Cn1c(/C(C#N)=C/Nc2ccccn2)nc2ccccc21,2.84%
19,COc1ccc(S(=O)(=O)N2CCOCC2)cc1C(=O)NCC(c1ccco1)N1CCCC1 (stereo not shown),3%
20,COc1ccccc1/C=C/C(=O)NCC(=O)N/N=C/c1ccc(C(=O)O)cc1,26.4%
21,NS(=O)(=O)c1cccc(NC(=O)c2cncc(Br)c2)c1,17.5%
22,CCCOC(=O)C(=O)NNc1ccccc1,24.2%
23,Cc1cc(NC(=O)CS(=O)(=O)c2cn(Cc3cccc(F)c3)c3ccccc23)no1,-11.9%

row,SMILES,"hERG current change (%, negative = inhibition) at 10uM"
1,CC(=O)c1ccc(NC(=O)C[n+]2cccc(C)c2)cc1.[Cl-],-2.87%
2,COc1ccc(/C=C2/SC(=S)N(Cc3ccccc3)C2=O)cc1O,18.4%
3,Cc1cc(C(=O)CC#N)c(C)n1-c1ccc(OC(F)F)cc1,-21.5%
4,O=C(Cn1ccc(NC(=O)OCc2ccccc2)nc1=O)NCc1ccc2c(c1)OCO2,24.3%
5,O=S(=O)(c1cnc(Cl)c(Cl)c1)N1CCc2ccccc21,11.7%
6,O=C(NC(=S)Nn1cnnc1)c1ccccc1Cl,19.2%
7,Cc1onc(-c2ccccc2Cl)c1C(=O)N/N=C(\N)COc1ccc(Cl)cc1,-3.36%
8,COc1ccc(NC(=O)Nc2ccc(C)cc2OC(F)F)cc1OC,11.5%
9,CCC(C)(C)NC(=O)CN(Cc1cccs1)C(=O)CNS(=O)(=O)c1ccc(F)cc1,4.42%
10,COc1ccccc1NS(=O)(=O)c1cc(NC(C)=O)ccc1N1CCCCC1,6.08%
11,NC(=O)C[n+]1cccc(C(=O)Nc2ccccc2)c1.[I-],17%
12,Cc1ccc(NC(=S)N/N=C2\CCCCC2C)cc1 (stereo not shown),-10.4%
13,CCNC(=S)N1CCN(CCN2C(=O)c3cccc4cccc(c34)C2=O)CC1,0.247%
14,CC(C)(C)OC(=O)N1CCC[C@H]1C(=O)NCc1ccc(Cl)cc1Cl,9.03%
15,CCOc1ccc(CN2CCNC(=O)C2CC(=O)NCCCn2ccnc2)cc1 (stereo not shown),19%
16,CN(C)c1nc(N)nc(CSc2nc3cc(Cl)ccc3o2)n1,8.44%
17,O=C(c1ccc(Cl)c(S(=O)(=O)N2CCCCC2)c1)N1CCCCC1,-31.7%
18,Cc1nc2ccccc2c(=O)n1NC(=O)c1ccc(Cl)cc1,-17.3%
19,CN(Cc1ccccc1)C(=O)CN1CCN(C(c2ccccc2)c2ccccc2)CC1,-47.7%
20,CC(/C=N/n1c(-c2cc(C)[nH]n2)n[nH]c1=S)=C\c1ccco1,15.8%
21,COCCNC(=O)C(C)N(c1ccc(Oc2ccccc2)cc1)S(C)(=O)=O (stereo not shown),-8.8%
22,CC(=O)Nc1cc(C(=O)N2CCCC2)ccc1S(=O)(=O)c1ccc(C)cc1,2.93%
23,COc1cccc(/C=N/NC(=O)CN(C2=NS(=O)(=O)c3ccccc32)c2ccccc2)c1,0.919%

row,SMILES,"hERG current change (%, negative = inhibition) at 10uM"
1,COCN(C#N)c1nc(N(C)C)nc(N(C)C)n1,4.28%
2,CC12C(=O)N(CCC(=O)O)C(=O)C1C1C=CC2C1 (stereo not shown),10.3%
3,CCN(C(=O)COC(=O)c1cnc(C)cn1)C1CCS(=O)(=O)C1 (stereo not shown),-15.2%
4,O/N=C(/CCc1ccccc1)C1(O)CCCCC1,-0.675%
5,CCC1CN(C(=O)N2CCC(C(=O)NCCc3ccccc3)CC2)c2ccccc2O1 (stereo not shown),-19.5%
6,Cc1nn(-c2ccccc2)c2c1c(C)c(CCC(=O)N1CCOCC1)c(=O)n2C,-40.3%
7,COc1cc(C(=O)NCC2CCCO2)cc(Br)c1OCc1ccccc1 (stereo not shown),-32.3%
8,COc1ccccc1OCCn1c(=O)oc2ccc(C)cc21,-0.344%
9,Cc1ccc(CN2C(=O)CCC2(C)C(=O)NCc2cccnc2)cc1 (stereo not shown),-3.97%
10,C[N+]12CCC(CC1)C(OC(=O)C(O)(c1ccccc1)c1ccccc1)C2.[Br-] (stereo not shown),0.174%
11,CCOCCCNC(=O)CN1C(=O)/C(=C/c2ccccc2C)Sc2ccccc21,-8.45%
12,O=S(=O)(NCc1ccccc1Cl)c1ccc(-n2cnnn2)cc1,21.2%
13,CCSc1ncc(Cl)c(C(=O)Nc2sc3c(c2C(=O)NCc2cccnc2)CCCC3)n1,10.6%
14,CN(CC(=O)Nc1ccc(F)cc1)CC(=O)NC1CCCCC1,11%
15,COc1ccc(C2C(C(=O)N3CCOCC3)=C(C)NC3=C2C(=O)CC(C)(C)C3)cc1O (stereo not shown),5.59%
16,CCCc1cc(=O)[nH]c(SCC(=O)Nc2ccc(Br)cc2)n1,1.12%
17,CCNc1nc(Oc2ccc(C(=O)OC)cc2)nc(SC)n1,5.75%
18,O=C(CSc1nnc2ccc(-c3cccnc3)nn12)Nc1ccccc1F,-39.2%
19,CCOCCn1ccc2c(OCC(=O)Nc3ccccc3OC)cccc2c1=O,-18%
20,CC1CCN(c2c(NCc3ccc(C(=O)N(C)C4CCCCC4)cc3)c(=O)c2=O)CC1,4.79%
21,COC(C[C@@H]1O[C@@H]1C(=O)[C@@H](C)OCc1ccccc1)OC,22.5%
22,OCC[C@@H]1C[C@@H](O)[C@H](O)[C@]2(OCCc3ccccc32)O1,12%
23,CCOc1ccc(-c2cc(CCCC(=O)NCCC(C)C)no2)cc1,1.35%

row,SMILES,"hERG current change (%, negative = inhibition) at 10uM"
1,O=C(C1CCC(=O)N(C2CCCC2)C1)N1CCN(c2ccccc2Cl)CC1 (stereo not shown),-15.8%
2,NC(N)=NC(=S)Nc1ccc(Cl)cc1,11.3%
3,CCn1c(C)c(C)c2cc(C(=O)Nc3cccc(Cl)c3)ccc21,11.3%
4,Cc1cc2nc(N3C(=O)CNC3=S)sc2cc1C,17.2%
5,O=C(CSc1nnc(CNC(=O)c2ccc(F)cc2)o1)Nc1ccc2c(c1)OCO2,12.3%
6,CCOCCCNC(=O)c1cc2c(=O)n3ccccc3nc2s1,-7.05%
7,COc1cccc(CNC(=O)c2ccc(CS(=O)c3ccccc3)o2)c1 (stereo not shown),3.35%
8,COc1cc(CNCCc2ccccc2F)ccc1OCc1ccc(Cl)nc1.Cl,-49.5%
9,COc1ccc(CN2CCNC(=O)C2CC(=O)N(Cc2nccn2C)C(C)C)c(OC)c1 (stereo not shown),-3.92%
10,CCn1c(COc2ccccc2)nnc1SCC(=O)Nc1ccc(N2CCOCC2)cc1,10.9%
11,Cc1ccc(-n2ncc3c(NCCCn4ccnc4)ncnc32)c(C)c1,-17.9%
12,O=c1cc(CN2CCN(CCO)CC2)c2cc3c(cc2o1)CCC3,-17.2%
13,COc1cccc(C(=O)NCCC2=CCCCC2)c1,-6.44%
14,CC1(C)SC(=S)N(NC(=O)Nc2ccccc2)C1N(O)C(=O)Nc1cccc2ccccc12 (stereo not shown),4.36%
15,CN(C)C(CNC(=O)CCC(=O)c1ccc(Br)cc1)c1ccccc1 (stereo not shown),-13.2%
16,Cc1ccc(S(=O)(=O)NN=C2CCN(Cc3ccccc3)CC2)cc1,0.546%
17,O=C(CSc1ncccc1C(=O)O)NCc1ccc(F)cc1,-2.84%
18,O=C(Oc1ccc(Cl)c2cccnc12)c1ccco1,-11%
19,CCc1[nH]c(=S)c(C#N)c2c1CCCC2,14.9%
20,COc1ccc(CN(C)C2c3ccccc3-c3ccccc32)cc1,17.4%
21,C=CCOc1ccc(C2NC(=O)c3ccccc3O2)cc1OCC (stereo not shown),18.9%
22,CCOC(=O)c1sc(NC(=O)CSc2nc3c(c(-c4ccc(OC)cc4)c2C#N)CCCC3)c(C#N)c1C,43%
